The record followed here is the supplement of paper PMC11417369.

Some of the results follow.

This test concerns PfAP2-HC AP2 domain (GST-tagged). Description: gcPBM binding intensity (ln(normalized median fluorescence intensity)); higher = stronger DNA binding. A digest of the protocol: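 For binding intensity, the highest Masliner-normalised natural-log median intensity across replicate spots of either probe orientation was taken. Protein bound to the array was stained with Alexa488 anti-GST antibody and scanned at 488 nm. The protein, GST-tagged P. falciparum DNA-binding domains from E. coli at about 25 μg on average, had been applied for 1 h to an Agilent 4 × 180k array of primer-extended double-stranded 36-bp intergenic genomic probes and negative controls.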
“AAATAAATATATATATGTACATACAAATACACGGTA [XGTACX_site8510]”: the “gcPBM binding intensity (ln)” value is 9.86.
Next, “AAGAAAAATGTCATATGATATCATATATTTTATAAT [TGCATGCA_negctrl_site296]”: 9.57; “TATATAAATAGACACACACACACATATAAATAAATA [CACACA_site7855]”: 10.7; TTTCAATGCATAAAAGTGCGCAATAATTTAAAGATC: 9.81.
To “TATTTTATAAATACAAGTAAAATTAAATATATAATA [XGTACX_negctrl_site221]” belongs 9.45; to “AGGAGGATATTACACAGTACCCAGGAAATCTACGGA [XGTACX_site4878]”, 9.54; to “TTGTACTACAATCCTTTATTTATTTAAACCTGTATG [CACACA_negctrl_site428]”, 9.51.
Next, “ATAATATATATTAATACACACACACCGATATATATA [CACACA_site9261]”: 10.4; “GACCAATACTTTAAAAGTACAAACCTTATTTTATTT [XGTACX_site2718]”: 9.77; “AAAAAAAAATAAAATAAAATAAAATAAAATAATATA [CACACA_negctrl_site1798]”: 9.59.
As to AAACAAATGTACAAAGTGCATATTTTTTTCAAAAGG, the “gcPBM binding intensity (ln)” value was 9.71.
To “ACATATGTATAATAATGTACGCATTAAATATAATTA [XGTACX_site7851]” belongs 9.99.
To “ATATATATATAATAAAGTACAAATTCTAAATGATAT [XGTACX_site570]” belongs 9.79.
For “TATCTTATGTCTGAAAGTACAAATTTTTTTCTACTT [XGTACX_site2208]”, the “gcPBM binding intensity (ln)” value was 9.65.
To “ACTACGAATGGTAGAGTGCAGTCTGGAGAAAAGTAC [GTGCAC_site9681]” belongs 9.71; to “CTTTTTTTTTTTTTTGCGCACTGTTTAAAGGGAAAT [GTGCAC_site9815]”, 9.71; to “ATTATCTATCGTTTTTGTACTTACACCTTAATACAA [XGTACX_site7337]”, 9.78.
Next, “AAATATTTTTAGAGTGCATGTAATAAAAATATAATG [TGCATGCA_site19]”: 9.66; “GGGATATATTATTATACACACATATATAAAAGCTTT [CACACA_site2445]”: 9.81; “TTAATTATATCAGGACGTACTAATATAAATATATAT [XGTACX_site8909]”: 9.53.
“AAATGAGATATAAAATGTACATATTGTAAGTAAACA [XGTACX_site1237]”: the “gcPBM binding intensity (ln)” value was 9.9.
Regarding “GTGCAAAATATTTTTACACACAAATTTTTACAACAG [CACACA_site3357]”, the “gcPBM binding intensity (ln)” value amounted to 9.81.
To “AAAAATAAATAAGACACACACAAAAAAAAAAAAAAA [CACACA_site1432]” belongs 9.87.
With “ATATATATATATATATATATATATATATATTATATA [XGTACX_negctrl_site48]”, the “gcPBM binding intensity (ln)” value was found to be 9.27.
Next, “AAATAATATATTCTATATAATAAATTATAAATATAA [GTGCAC_negctrl_site558]”: 9.53; “ATATGACTGTTCATTTGTACGTATAATTATATACGT [XGTACX_site3372]”: 9.61; “ATACAACTAATAAGTAGTACAATATACATATATTAT [XGTACX_site7086]”: 9.72.
As for “TTTTTTTTTTTTTTTTATTTATATATATATATATAT [CACACA_negctrl_site582]”, the “gcPBM binding intensity (ln)” value turned out to be 9.5.
To “AAAAAAAATGAAAGGTGTACACATACAAACATAGAA [XGTACX_site3517]” belongs 10.3.
Take “TAATTTAGATATATAAAGAATTAAAGTTAACATTCT [CACACA_negctrl_site726]”: the “gcPBM binding intensity (ln)” value was found to be 9.41.
Next, “TTTTTCAGATCCTATATAGTATCATATAAATTCCAT [CACACA_negctrl_site56]”: 9.39; “TTAAGAAAAAAAAAAAGTACACACATATAATATATA [XGTACX_site6268]”: 9.83.
To CGTTGGTATTAAAAGGTGCAATGAAATAATATATTA belongs 9.55; to “AAGATCGCATGAAATGAACACACATAAAAAAAATAT [CACACA_site9353]”, 10.1; to “AATGTAACAACTTTTTGTACTTAAGAAATAATAAAT [XGTACX_site3310]”, 9.48.
Next, “TAAAAAATTATATTCACACACATACCCATATATATA [CACACA_site4458]”: 10.5.
As to “TAAAATTTATAAACTACACACATATATATAGTAATA [CACACA_site3728]”, the “gcPBM binding intensity (ln)” value was determined as 9.77.
Next, “CACAAAATAAATTAAACACACAACATCATAGATGTA [CACACA_site4619]”: 9.95; “AATTTTTATTTGTACACACATACATATATATTATAT [CACACA_site993]”: 10; “TTTTTATTTACACTTTTTATTTATATATTATGTACG [CACACA_negctrl_site158]”: 9.74.
Turning to “TGTCATCATCTTAAATGTACAAAAAGGAAATATAAA [XGTACX_site1529]”, the “gcPBM binding intensity (ln)” value was 9.47.
Take “TTTATATATTTCATAATACACACGAAAAAAAAAAAA [CACACA_site2970]”: the “gcPBM binding intensity (ln)” value worked out at 9.59.
On to “ATAAATAATATAAATACACACTAAAAAAAATATATA [CACACA_site4456]”, for which the “gcPBM binding intensity (ln)” value stood at 9.88.
Next, “ATATAATCAGCTTCTCTTTTATGCTAAAAAAAAAAA [CACACA_negctrl_site1310]”: 9.34.
